Test results as given in PubChem BioAssay (NCATS).
Values joined by “and” are separate entries in the source; they are usually repeats but may differ in a detail not shown here. Equal values may be shown once. The inconclusive results got no clear call from the source; some entries with a clear call stand among them for comparison. Potencies of inconclusive entries are doubtful fits and often do not repeat. Active and inactive are the calls of the source. Calls follow the shape of the dose curve; as a rule, active = well fitted cell-killing curve with a large enough effect; inconclusive = small, poorly fitted or top-dose-only effect, or effect the other way; inactive = no such curve, though single readings can be large or run the other way.

Assays:
[1] = Viability qHTS for spleen associated tyrosine kinase inhibitor (SYKi) naive MV4-11 cells (AID 1963823); details: MV4-11 AML viability, CellTiter-Glo luminescence, 72 h; viability (% of control): at 45 µM (top of the series); also: nearly all actives have a fitted effect of over 40% in size
In short: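 Read-out: CellTiter-Glo luminescence. Exposure: 72 hr, 37 C, 5% CO2, 95% humidity. Cells: MV4-11 without SYK inhibitor history, 500/well, qHTS format.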

[2] = Viability qHTS for spleen associated tyrosine kinase inhibitor (SYKi) drug resistant MV4-11 cells (AID 1963824); also: nearly all actives have a fitted effect of over 35% in size
In short: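 CellTiter-Glo luminescence, read 10 min after reagent addition, reports viability after a 72 hr compound exposure. Cells are an MV4-11 line made resistant to SYK inhibition, seeded at 500 per well onto compound-containing plates.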
Potency is read from the fitted curve at half-maximal effect; tags tell the direction and shape of the fitted curve.

SMILES | Potency [1] | Potency [2] | viability (% of control) [1] | viability, % of control [2]
COc1ccc2c(c1)O[C@H](O[C@@H]1O[C@H](CO)[C@@H](O)[C@H](O)[C@H]1O)C(=O)N2 | inactive | inactive | – | –
C[C@H](Oc1cc(-n2cnc3ccc(CN4CCN(C)CC4)cc32)sc1C(N)=O)c1ccccc1C(F)(F)F | active: 1.03 µM | active: 0.58 µM | – | –
C[C@@H]1O[C@@H](O[C@H]2[C@H](OC(=O)[C@]34CCC(C)(C)C[C@H]3C3=CCC5[C@@]6(C)C[C@@H](O)[C@@H](O[C@@H]7O[C@H](CO)[C@@H](O)[C@H](O)[C@H]7O)[C@@](C)(CO)C6[C@H](O)C[C@@]5(C)[C@]3(C)CC4)OC[C@H](O)[C@@H]2O)[C@H](O)[C@H](O[C@@H]2OC[C@](O)(CO)[C@H]2O)[C@H]1O[C@@H]1OC[C@@H](O)[C@H](O[C@H]2O[C@H](C)[C@@H](O)[C@H](O)[C@@H]2O)[C@H]1O (stereo not given in full) | – | – | inactive: 80.1% [at 9.25 µM] | inactive: 86.5% [at 9.25 µM]
O=C1CCc2cc(S(=O)(=O)Nc3ccc(F)c(Cl)c3)c(F)cc2N1 | inconclusive: 14.6 µM [cytotoxic, partial curve] | inconclusive: 20.6 µM [cytotoxic, single point] | – | –
CC/C(C)=C/C(=O)OC1C(OC2(C)CCC3C(C4C(C)CCC42)C3(C)C)OC(C)C(O)C1O (stereo not given) | active: 8.93 µM | inconclusive: 7.09 µM [cytotoxic, partial curve, poor fit] | – | –
C=C(C(=O)O)C1CCC2(C)CCC(O)C(C)(O)C2C1 (stereo not given) | inactive | inactive | – | –
CC(CCO)CCC1C2(C)CCCC(C)(C)C2CC[C@@]1(C)O (stereo not given in full) | inconclusive: 10.1 µM [cytotoxic, single point] | inconclusive: 20.2 µM [cytotoxic, single point] | – | –
CC(=O)OC[C@]12[C@H](OC(C)=O)[C@H](OC(=O)c3ccccc3)[C@@H]3[C@@H](OC(C)=O)[C@]1(OC3(C)C)[C@H](C)C[C@H](OC(=O)c1ccccc1)[C@@H]2OC(=O)c1ccccc1 | inactive | inconclusive: 5.44 µM [cytotoxic, single point] | – | –
C[C@H]1O[C@H](O[C@H]2[C@H](O)[C@@H](O)[C@@H](O[C@H]3[C@H](O)[C@@H](O)[C@H](O)O[C@@H]3CO)O[C@@H]2CO)[C@H](O)[C@@H](O)[C@@H]1N[C@H]1C=C(CO)[C@@H](O)[C@H](O)[C@H]1O | inconclusive: 7.5 µM [cytotoxic, partial curve, poor fit] | inactive | – | –
CC(C)(C)NC[C@H](O)COc1cccc2c1CCCC2=O | active: 11.9 µM | inconclusive: 0.0009 µM | – | –
CC1c2cccc(O)c2C(O)=C2C(=O)C3(O)C(O)=C(C(N)=O)C(=O)C(N(C)C)C3C(O)C21 (stereo not given) | active: 20.9 µM | active: 11.8 µM | – | –
COc1c(C(CC(C)C)OC(C)=O)ccc(Oc2c(O)cc(C)cc2/C=C/C(C)=O)c1C(=O)O (stereo not given) | inactive | inconclusive: 5.63 µM [cytotoxic, partial curve] | – | –
COc1ccccc1C(=O)Nc1cccc(NC(=O)c2cccc(C)c2)c1 | inconclusive: 0.0517 µM [rising, full curve] | inconclusive: 0.259 µM [rising, full curve, poor fit] | – | –
C=C(C(=O)O)C1CC2=C(C)CCCC2(C)C[C@@H]1O (stereo not given in full) | inconclusive: 25.9 µM [cytotoxic, single point] | inconclusive: 20.6 µM [cytotoxic, single point] | – | –
C=C1CCC2[C@@](C)(C(=O)O)CCC[C@@]2(C)[C@@H]1CCc1ccoc1 (stereo not given in full) | inconclusive: 12.8 µM [cytotoxic, partial curve, poor fit] | inconclusive: 4.04 µM [cytotoxic, partial curve, poor fit] | – | –
CC1=CCC[C@@H]2[C@](CCc3ccoc3)(C(=O)O)[C@H](C)CC[C@@]12C | inconclusive: 12.8 µM [cytotoxic, partial curve] | inconclusive: 14.3 µM [cytotoxic, partial curve] | – | –
CCn1cc(C(=O)O)c(=O)c2cc3c(cc21)OCO3 | inactive | inactive | – | –
O=C(Nc1ccccc1)N1CCN(Cc2ccc3ccccc3n2)CC1 | inconclusive: 3.66 µM [cytotoxic, full curve] | inconclusive: 2.91 µM [cytotoxic, full curve] | – | –
C[C@]12CC[C@@H]3c4ccc(O)c(O)c4CC[C@H]3[C@@H]1CCC2=O | inconclusive: 20.6 µM [cytotoxic, single point] | inconclusive: 20.6 µM [cytotoxic, partial curve] | – | –
COc1cc2c(cc1OC)N1C(=O)C[C@@]34C=CC[N@+]5([O-])CC[C@H]2[C@H](CC3)[C@@]145 | inconclusive: 16.1 µM [cytotoxic, single point] | inconclusive: 14.3 µM [cytotoxic, single point] | – | –

SMILES | Potency [1] | Potency [2] | viability (% of control) [1] | viability, % of control [2]
COc1ccc(/C=C/C(=O)O[C@@H]2[C@@H](O)[C@@H](O)[C@H](O[C@@H]3C=C(CO)[C@H]4[C@H](O[C@@H]5O[C@H](CO)[C@@H](O)[C@H](O)[C@H]5O)OC=C[C@H]43)O[C@H]2C)cc1O | inactive | inactive | – | –
O=C(O)c1ccc(O)c2ncc(N3CCCN(CCc4cccc5ccccc45)CC3)cc12 | active: 18.4 µM | active: 10.3 µM | – | –
CNCCc1ccccn1 | inconclusive: 16.8 µM [cytotoxic, partial curve] | inactive | – | –
CCCCCCCCC(=O)N[C@H](CN1CCCC1)[C@H](O)c1ccc2c(c1)OCCO2 | inconclusive: 18.4 µM [cytotoxic, partial curve] | inconclusive: 23.1 µM [cytotoxic, partial curve] | – | –
CN1CCCN=C1/C=C/c1cccs1 | inconclusive: 0.0372 µM [cytotoxic, full curve, poor fit] | inconclusive: 1.32 µM [cytotoxic, full curve] | – | –
C[C@]12CC[C@@H]3c4ccc(OC(=O)c5ccccc5)cc4CC[C@H]3[C@@H]1CC[C@@H]2O | inconclusive: 10.3 µM [cytotoxic, partial curve] | inconclusive: 11.6 µM [cytotoxic, partial curve] | – | –
CC1(C)CC[C@]2(C(=O)O[C@@H]3O[C@H](CO[C@@H]4O[C@H](CO[C@@H]5O[C@H](CO)[C@H](O)[C@H](O)[C@H]5O)[C@@H](O)[C@H](O)[C@H]4O)[C@@H](O)[C@H](O[C@@H]4O[C@H](CO)[C@@H](O)[C@H](O)[C@H]4O)[C@H]3O)[C@H](O)C[C@]3(C)C(=CCC4[C@@]5(C)CC[C@H](O[C@@H]6OC[C@@H](O)[C@H](O)[C@H]6O)[C@@](C)(C(=O)O)C5CC[C@]43C)[C@@H]2C1 (stereo not given in full) | inconclusive: 3.09 µM [cytotoxic, partial curve, poor fit] | – | – | inactive: 90.5% [at 9.25 µM]
C=C(C)C1CC(O)C(C)C12CC(O)C1(C)OC1C2O (stereo not given) | inconclusive: 2.91 µM [cytotoxic, full curve] | inconclusive: 1.84 µM [cytotoxic, full curve] | – | –
O=C1Nc2ccccc2-c2nc3ccccc3c(=O)n2-c2c(O)cccc21 | inconclusive: 10.1 µM [cytotoxic, single point] | inconclusive: 8.05 µM [cytotoxic, partial curve, poor fit] | – | –
CNC(=O)c1c(I)c(NC(=O)CCCCC(=O)Nc2c(I)c(C(=O)O)c(I)c(C(=O)NC)c2I)c(I)c(C(=O)O)c1I | inconclusive: 33.5 µM [cytotoxic, single point] | inactive | – | –
N[C@@]1(C(=O)O)CC[C@H]2[C@H](C(=O)O)[C@H]21 | inactive | inactive | – | –
CC(C)NCC(O)COc1cccc2[nH]ccc12 (stereo not given) | inactive and inconclusive: 29.1 µM [cytotoxic, single point] | inconclusive: 14.6 µM [cytotoxic, partial curve, poor fit] | – | –
O=C(/C=C/c1ccc(O)cc1)O[C@@H]1C[C@@](O)(C(=O)O)C[C@@H](O)[C@@H]1O | inactive | inactive | – | –
C=C1C(=O)O[C@@H]2[C@H]1CCC(C)=C(CCC(=O)O)[C@@]2(C)O | active: 9.2 µM | active: 4.11 µM | – | –
Cc1cc(=O)oc2cc(O[C@@H]3SC[C@@H](O)[C@H](O)[C@H]3O)ccc12 | inactive | inconclusive: 0.119 µM [cytotoxic, single point] | – | –
Cc1cc(C(N)=O)ccc1-n1c(CCC(=O)O)ccc1-c1ccc(-n2ccnc2)cc1 | inconclusive: 5.8 µM [cytotoxic, single point] | inconclusive: 6.51 µM [cytotoxic, single point] | – | –
COC(=O)C1=COC(O[C@@H]2O[C@H](CO[C@@H]3O[C@H](COC(=O)/C=C\c4ccc(O)cc4)[C@@H](O)[C@H](O)[C@H]3O)[C@@H](O)[C@H](O)[C@H]2O)C2C(CO)=CCC12 (stereo not given in full) | inactive | inactive | – | –
C=C1C(OC(C)=O)[C@@]23CCC4[C@](C)(C(=O)O)CCC[C@@]4(C)[C@]2(O)CC[C@H]1C3 (stereo not given in full) | inconclusive: 8.05 µM [cytotoxic, partial curve, poor fit] | inactive | – | –
CC(=O)Nc1ccc(C(=O)Nc2ccccc2N)cc1 | active: 5.63 µM and active: 4.68 µM | active: 3.55 µM and active: 3.72 µM | – | –
COc1cc(C)c(C(=O)Oc2cc(C)c(C(=O)Oc3cc(C)c(C(=O)NC(C)C(=O)O)c(O)c3)c(O[C@@H]3O[C@H](CO)[C@@H](O)[C@H](O)[C@H]3OC(C)=O)c2)c(OC)c1 (stereo not given in full) | inactive | inactive | – | –
